# Data from paper PMC4336329 (PLoS ONE, 2015).
# The campaign covered roughly 310,000 compounds. About 14,000 (4.5%) showed an effect of 50% or more. The effect is printed as a negative number. This is one part of the list.
# Molecular target: human ether-à-go-go-related gene (hERG) potassium channel (human, UniProt Q12809)
# Assay: primary screen, population patch clamp on CHO cells stably expressing hERG
# 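Also: peak tail current of the secondary pulse compared with the same well before compound.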
# Sequence of human ether-à-go-go-related gene (hERG) potassium channel (Q12809 whole entry, looked up): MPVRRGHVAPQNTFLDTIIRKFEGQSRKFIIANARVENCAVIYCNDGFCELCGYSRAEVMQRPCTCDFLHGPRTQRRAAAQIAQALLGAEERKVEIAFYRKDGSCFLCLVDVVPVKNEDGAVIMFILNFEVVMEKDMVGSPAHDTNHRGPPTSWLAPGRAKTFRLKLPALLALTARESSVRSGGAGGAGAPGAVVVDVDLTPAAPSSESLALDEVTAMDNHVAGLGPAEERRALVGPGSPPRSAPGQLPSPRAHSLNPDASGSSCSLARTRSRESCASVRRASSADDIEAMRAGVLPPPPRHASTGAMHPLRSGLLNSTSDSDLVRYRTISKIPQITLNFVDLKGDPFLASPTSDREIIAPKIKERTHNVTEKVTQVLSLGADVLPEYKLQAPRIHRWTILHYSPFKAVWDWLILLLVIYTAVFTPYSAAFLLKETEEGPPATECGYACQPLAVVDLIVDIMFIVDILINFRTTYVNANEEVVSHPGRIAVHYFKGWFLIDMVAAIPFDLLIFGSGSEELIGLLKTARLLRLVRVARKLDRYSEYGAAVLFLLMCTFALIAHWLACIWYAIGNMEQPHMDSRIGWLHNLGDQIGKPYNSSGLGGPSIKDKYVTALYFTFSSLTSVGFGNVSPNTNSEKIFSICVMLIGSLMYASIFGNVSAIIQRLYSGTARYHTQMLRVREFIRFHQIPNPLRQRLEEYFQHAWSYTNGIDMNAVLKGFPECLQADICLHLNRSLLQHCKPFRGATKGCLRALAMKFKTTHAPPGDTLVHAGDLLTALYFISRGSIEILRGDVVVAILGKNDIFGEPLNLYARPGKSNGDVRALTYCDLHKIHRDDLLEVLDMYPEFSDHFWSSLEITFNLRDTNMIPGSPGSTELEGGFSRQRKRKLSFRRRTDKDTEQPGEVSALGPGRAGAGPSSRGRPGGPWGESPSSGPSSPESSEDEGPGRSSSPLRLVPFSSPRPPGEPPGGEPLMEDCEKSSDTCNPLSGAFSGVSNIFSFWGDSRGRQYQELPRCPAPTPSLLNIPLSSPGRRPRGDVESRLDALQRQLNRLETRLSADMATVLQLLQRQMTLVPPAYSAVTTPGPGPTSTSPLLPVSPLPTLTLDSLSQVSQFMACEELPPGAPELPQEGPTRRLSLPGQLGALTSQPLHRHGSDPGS
row,SMILES,"hERG current change (%, negative = inhibition) at 10uM [%]"
1,Clc1cccc(Cl)c1Cn1nnc(N2CCCC2)n1,4.97
2,CSc1ncc(CN2CCN(C3CCCCC3)C(CCO)C2)cn1 (stereo not drawn),-16.9
3,COc1ccc(C2C(=O)N(C3CCCCC3)CC(=O)N2C2CCCC2)cc1 (stereo not drawn),-12.1
4,Cc1c(NC(=O)C(C)OC(=O)c2cc(-c3cccc4ccccc34)nc3ccccc23)c(=O)n(-c2ccccc2)n1C (stereo not drawn),-10.3
5,Cc1ccc(NC(=O)c2ccc3c(c2)CCN3S(C)(=O)=O)c(C)c1,-7.35
6,Nc1nc(CSc2n[nH]c(-c3ccccc3)n2)nc(Nc2ccccc2)n1,-15.4
7,COc1cccc(-n2c(-c3ccccc3)c[nH]c2=S)c1,24.4
8,Cc1cc(NC(=O)CSc2ccc3nnc(-c4cccs4)n3n2)no1,-42.8
9,O=C1CC(NN2CCCCC2)C(=O)N1c1ccccc1 (stereo not drawn),-3.51
10,C[C@H](NC(=O)OCc1ccccc1)C(=O)NNC(=O)[C@H](Cc1ccccc1)NC(=O)OC(C)(C)C,31.2
11,COc1ccc(-c2cc(=O)oc3c(C)c(OCC(=O)NCCCn4ccnc4)ccc23)cc1,-63.8
12,CC(C)C(=O)Nc1nnc(CCN2CCCCC2)s1,1
13,COc1cccc(-n2cc(CN(C)Cc3nc(Cc4ccccc4)no3)cn2)c1,-37.9
14,O=C(CSCc1nc2ccccc2[nH]1)N1CCN(c2cccc(Cl)c2)CC1,-9.81
15,Cc1nc2nc(C)c(NS(=O)(=O)c3ccc(Cl)s3)c(=O)n2[nH]1,16.3
16,O=C1CC(=O)N(c2cccc(Cl)c2)C(=O)N1,-1.2
17,COc1ccc(-n2nc(C(=O)NCC(=O)NCCCN3CCOCC3)c3ccccc3c2=O)c(OC)c1,22.2
18,CCN(CC)C(=O)N1CCC(NC(=O)c2ccccc2)CC1,12.6
19,Cc1ccc(C(=O)N/C(=C\c2ccc(F)cc2)C(=O)NCCCn2ccnc2)cc1,-77.5
20,Cc1ccc2[nH]c3c(=O)n(CC(=O)N4CC(C)CC(C)C4)ncc3c2c1 (stereo not drawn),6.32
21,COc1ccc(C(CCNCc2ccc(N(C)C)cc2)c2ccccc2OC)cc1 (stereo not drawn),-71.1
22,O=C(NNC(=O)c1cc(-c2ccc(Cl)cc2Cl)nc2ccccc12)Nc1ccccc1,1.72

row,SMILES,"hERG current change (%, negative = inhibition) at 10uM [%]"
1,CC(NC(=O)CCNC(=O)N1CCn2c1nc1ccccc12)c1ccccc1 (stereo not drawn),-4.17
2,CCOc1cccc(OCCOc2ccccc2[N+](=O)[O-])c1,0.403
3,CC(NS(=O)(=O)c1ccc(Cl)cc1)C(=O)NCCC1=CCCCC1 (stereo not drawn),-5.41
4,CC1Cc2ccccc2N1Cc1nc2scc(-c3cccs3)c2c(=O)[nH]1 (stereo not drawn),25.2
5,CCOc1cc(/C=N/NC(=O)CN2CCCCC2)ccc1OCc1ccc(Cl)cc1,7.37
6,O=C(Cc1ccccc1)Nc1ccc(Cl)cn1,16.6
7,CCOc1ccccc1C(c1c(C)n(C)n(-c2ccccc2)c1=O)c1c(C)n(C)n(-c2ccccc2)c1=O,-5.61
8,O=C(CSc1ncc(-c2ccccc2)nn1)NCc1ccco1,-23.6
9,COc1ccc(NC(=O)N2CCCC2C(=O)NCc2ccc(F)cc2)cc1 (stereo not drawn),-4.28
10,CC(C)c1nnc(NC(=O)Cc2ccccc2[N+](=O)[O-])s1,11
11,CS(=O)(=O)N1CCC(C(=O)Nc2ccc(Br)cc2F)CC1,5.01
12,CC1=CC(C)(C)N(S(=O)(=O)c2ccc(C)cc2)c2ccc(C)cc21,-5.9
13,CCO[C@@H]1OC(C(=O)N2CCN(Cc3ccc4c(c3)OCO4)CC2)=C[C@H](c2ccc3c(c2)OCO3)[C@H]1CCCO,-23.2
14,CC1CCCN(S(=O)(=O)c2cc3c4c(c2)C(C)C(=O)N4CCC3)C1 (stereo not drawn),14.6
15,O=C(Nc1ccc(-c2nnc(-c3ccccc3)o2)cc1)c1ccc(Br)o1,-7.92
16,CS(=O)(=O)N(CC(=O)NC1CCCC1)c1ccc(Oc2ccccc2)cc1,-2.69
17,CC(=O)Nc1ccc2nc(NC(=O)COc3ccccc3C)sc2c1,-0.0372
18,O=c1cc(O)c2sc3nc(-c4cccnc4)cc(C(F)(F)F)c3c2[nH]1,2.76
19,CC1CCC(N2CCN(c3ccc([N+](=O)[O-])cc3)CC2)CC1 (stereo not drawn),-74.8
20,Cc1ccc(NS(=O)(=O)c2ccc(CCC(=O)NCCO)cc2)cc1,-1.96
21,CN1CCc2c(OCc3ccc(F)cc3)cccc2C1=O,-11.4
22,Cl.O=S(=O)(NCCN1CCOCC1)c1ccc(Cl)s1,24

row,SMILES,"hERG current change (%, negative = inhibition) at 10uM [%]"
1,O=C(CCN1CCOCC1)c1ccc(N2CCCCC2)cc1.[Br-],-2.06
2,Cc1ccc(CN(Cc2cccnc2)C(=S)Nc2cccc(Cl)c2C)cc1,8.32
3,CC(C)(C)c1ccc(NC(=O)N2CCN(c3ccc([N+](=O)[O-])cn3)CC2)cc1,-9.81
4,COc1cccc(OCc2nnc(SCC(=O)NCc3ccco3)n2CCc2ccccc2)c1,-44.6
5,O=C(NCCOc1ccccc1)C1CCC(=O)N(CCN2CCOCC2)C1 (stereo not drawn),24.7
6,Cc1nnsc1NC(=O)OCc1ccc(C(F)(F)F)cc1,-8.15
7,CC1CC(C)CN(C(=O)CCC(=O)Nc2nnc(C(C)C)s2)C1 (stereo not drawn),12.6
8,O=C(O)c1ccc(Nc2ncnc3c2cnn3Cc2ccccc2)cc1,22.8
9,NS(=O)(=O)c1ccc(N/N=C/c2ccccn2)c([N+](=O)[O-])c1,23.2
10,O=C1C(c2ccccc2)=C(N2CC2)c2ccccc21,3.53
11,O=C(NC(=S)Nc1ccc2ncccc2c1)c1ccccc1,2.36
12,c1ccc2sc(N3CCCN(Cc4nc(-c5cnccn5)no4)CC3)nc2c1,-35.8
13,CC(C)C(=O)OCC(=O)Nc1ccc2c(c1)CCC2,12.5
14,CCCN(Cc1nnc(-c2ccccc2Cl)o1)C(=O)c1cc(S(=O)(=O)N2CCOCC2)ccc1F,-47.7
15,O=C(c1cc2ccccc2oc1=O)N1CCN(CCc2ccccc2)CC1,-71.8
16,Cc1cccc(C)c1NC(=O)COC(=O)C1Cc2ccccc2CN1C(=O)c1ccccc1 (stereo not drawn),-6.54
17,O=C(c1ccc2c(=O)n(Cc3ccccc3)c(=S)[nH]c2c1)N1CCOCC1,26.9
18,C=CCNC(=S)N1CCN(CCNC2=CC(=O)CC(C)(C)C2)CC1,28.7
19,COc1ccc(/C(C)=N/OC/C(O)=C(\C#N)c2nc3ccccc3[nH]2)c(OC)c1,17.6
20,CC1CCN(S(=O)(=O)c2csc(C(=O)Nc3ccccc3)c2)CC1,-0.558
21,CSc1nc(C)cc(OCC#N)n1,9.22
22,Cc1cc(C)n(-c2nc3ccccc3n3nnnc23)n1,3.15

row,SMILES,"hERG current change (%, negative = inhibition) at 10uM [%]"
1,CCN(CC(=O)Nc1cc(C)c(Cl)cc1OC)CC(=O)NC1CCS(=O)(=O)C1 (stereo not drawn),15.2
2,O=C1c2ccccc2C(=O)N1CCCCN(C(=O)c1ccc([N+](=O)[O-])cc1)c1ccc(Cl)cc1,-3.93
3,C=CCn1c(SCC(=O)c2c(C)[nH]c3ccccc23)nnc1-c1ccncc1,21.3
4,COC(=O)C1CN(S(=O)(=O)c2cc(OC)ccc2OC)CCS1 (stereo not drawn),13.6
5,COc1ccc(N2CCN(C(=O)c3sc4ncn(CC(=O)N5CCCCC5)c(=O)c4c3C)CC2)cc1,-12.9
6,CCOC(=O)CCc1c(C)nc2c(c(C)nn2-c2ccc(C)cc2)c1C,20.4
7,c1ccc(-c2nc(-c3nccc4ccccc34)oc2-c2ccccc2)cc1,-6.54
8,CC(C(=O)Nc1ccccc1F)N1C(=O)c2ccccc2C1=O (stereo not drawn),4.21
9,Cc1cc(C)nc(Sc2c(C)nn(-c3ccccc3)c2C)n1,-1.91
10,O=C(CSc1nnc(SCc2ccc(F)cc2)s1)Nc1ccc(C(=O)O)cc1,18.6
11,Oc1ccc(C[C@@H]2CNC(=S)N2CCCCC2CCCCC2)cc1,14.3
12,CCCn1cc(S(=O)(=O)c2ccccc2)c(=O)c2cc(F)c(N3CCN(C)CC3)cc21,-8.34
13,O=c1[nH]c2sc3c(c2c2nncn12)CCCC3,1.69
14,CCOC(=O)COc1ccccc1/C=C\[N+](=O)[O-],-2.07
15,COC(=O)c1ccc(NC(=O)Cc2ccc(F)cc2)cc1,30.6
16,COc1cc2ccccc2cc1C(=O)Nc1ccc(N2CCN(C(=O)C(C)C)CC2)cc1,16.3
17,CCC1(CC)NC(=O)N(CC(=O)Nc2ccc(S(=O)(=O)N3CCOCC3)cc2)C1=O,-2.22
18,O=C(CSc1nc2ccccc2[nH]1)NCC1CCCO1 (stereo not drawn),13.6
19,O=C(Nc1ccc(Cl)cc1)NC1CCS(=O)(=O)C1 (stereo not drawn),-8.68
20,O=C(Nc1ccc(F)c(Cl)c1)Nc1csc2ccccc12,20.2
21,CCCC(=O)Nc1sc(C(=O)Nc2cccc(N)c2)c(C)c1C(=O)OC,-2.58
